# Assay results published in publication PMC4336329 (PLoS ONE, 2015).
# The whole screen tested about 310,000 compounds, of which about 14,000 (4.5%) showed an effect of 50% or more. Effects have a minus sign here. This is one part of the list.
# Biological target: human ether-à-go-go-related gene (hERG) potassium channel (human, UniProt Q12809)
# Assay: primary screen, population patch clamp on CHO cells stably expressing hERG
# 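Also: peak tail current of the secondary pulse compared with the same well before compound.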
# human ether-à-go-go-related gene (hERG) potassium channel, sequence (Q12809 whole entry, looked up): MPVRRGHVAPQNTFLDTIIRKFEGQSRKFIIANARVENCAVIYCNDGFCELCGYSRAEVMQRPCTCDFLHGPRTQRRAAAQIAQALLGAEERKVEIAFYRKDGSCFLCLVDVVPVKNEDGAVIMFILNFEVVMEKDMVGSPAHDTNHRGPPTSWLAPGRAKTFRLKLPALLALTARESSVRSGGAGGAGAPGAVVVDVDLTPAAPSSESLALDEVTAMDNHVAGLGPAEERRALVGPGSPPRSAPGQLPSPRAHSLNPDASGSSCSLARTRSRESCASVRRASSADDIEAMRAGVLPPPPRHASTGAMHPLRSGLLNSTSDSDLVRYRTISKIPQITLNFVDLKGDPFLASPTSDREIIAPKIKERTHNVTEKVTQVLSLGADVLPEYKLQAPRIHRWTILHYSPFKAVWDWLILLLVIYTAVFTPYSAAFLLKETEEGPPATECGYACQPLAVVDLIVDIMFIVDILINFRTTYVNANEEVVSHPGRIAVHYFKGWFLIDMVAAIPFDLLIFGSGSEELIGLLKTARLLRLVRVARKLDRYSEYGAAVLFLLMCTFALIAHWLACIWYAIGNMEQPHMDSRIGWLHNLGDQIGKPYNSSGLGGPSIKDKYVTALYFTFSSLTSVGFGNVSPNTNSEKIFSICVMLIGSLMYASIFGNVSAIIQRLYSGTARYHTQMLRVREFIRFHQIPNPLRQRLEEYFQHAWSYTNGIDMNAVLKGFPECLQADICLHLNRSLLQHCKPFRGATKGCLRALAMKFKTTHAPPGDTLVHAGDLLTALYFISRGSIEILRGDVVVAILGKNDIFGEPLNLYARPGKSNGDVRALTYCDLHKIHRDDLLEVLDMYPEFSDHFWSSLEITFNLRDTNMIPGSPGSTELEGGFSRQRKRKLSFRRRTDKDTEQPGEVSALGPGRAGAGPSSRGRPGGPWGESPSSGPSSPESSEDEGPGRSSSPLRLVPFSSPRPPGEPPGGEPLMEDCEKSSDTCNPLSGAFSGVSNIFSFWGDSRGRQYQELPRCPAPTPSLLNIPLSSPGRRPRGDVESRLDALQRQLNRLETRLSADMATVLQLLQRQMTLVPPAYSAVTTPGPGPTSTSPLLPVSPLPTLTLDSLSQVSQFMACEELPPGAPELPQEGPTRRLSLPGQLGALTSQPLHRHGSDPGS
row,SMILES,"hERG current change (%, negative = inhibition) at 10uM [%]"
1,Cc1n[nH]c(C)c1S(=O)(=O)N1CCCC(C(=O)N2CCN(c3ccc(Cl)cc3)CC2)C1 (centres unmarked),-75.1
2,CCOc1ccc(N(CC(=O)NC(C)C)C(=O)CCC(=O)Nc2ccccn2)cc1,-3.32
3,CCCCC1CCC(c2nc(-c3cccnc3)no2)CC1 (centres unmarked),3.51
4,CCCN1C2CCCC1CC(NC(=O)c1ccccc1OCC)C2 (centres unmarked),-47.2
5,CN(C)C(CNC(=O)c1ccco1)c1cccs1 (centres unmarked),3.47
6,COc1ccc(-c2noc(CSc3nc4ccccc4c(=O)n3-c3ccccc3)n2)cc1OC,8.69
7,COCCNc1oc(-c2ccco2)nc1S(=O)(=O)c1ccccc1,2.69
8,CC1C=CCC2C(=O)N(c3ccc(OC(=O)c4cccs4)cc3)C(=O)C12 (centres unmarked),13.3
9,COc1ccc2nc(NC(=O)c3cccs3)sc2c1,8.71
10,COc1ccc(NC(=O)Cn2c(C)cc(=O)c3cccc(OC)c32)cc1,5.8
11,O=C(O)c1ccccc1C(=O)Nc1ccc(-c2csc(-c3ccccc3)n2)cc1,17
12,CCN1CCN(Cc2ccc(C)cc2)CC1,-12.5
13,Cc1nnc(SCC(=O)N2c3ccccc3C(C)(c3ccccc3)CC2(C)C)s1 (centres unmarked),-18.1
14,O=C(Nc1ccccc1N1CCOCC1)c1cccc(F)c1,2.89
15,CCOC(=O)c1cnc2ccccc2c1Nc1ccc(C(=O)O)cc1.Cl,17.9
16,O=C(CNS(=O)(=O)c1ccccc1)OCC(=O)c1ccc(Br)cc1,14.3
17,COCCn1c(SCC#N)nnc1-c1ccccc1O,-3.69
18,COC(=O)Cn1ncc2c(C)n(Cc3ccccc3)c(C)c2c1=O,-0.356
19,Cc1ccc(OCc2ccc(C(=O)NCC3CCCO3)cc2)cc1 (centres unmarked),32.4

row,SMILES,"hERG current change (%, negative = inhibition) at 10uM [%]"
1,Cn1cc(C(=O)c2ccc(Cl)cc2Cl)cc1C(=O)N/N=C(\N)COc1cccc(C(F)(F)F)c1,-4.61
2,O=C(NC1CCCCC1)C(c1cccnc1)N(C(=O)c1ccc(Cl)nc1)C1CCCCC1 (centres unmarked),4.19
3,Cc1cccc(C)c1N(CC(=O)N1CCOCC1)S(C)(=O)=O,18.6
4,Cc1cc(C)c(O)c(-c2n[nH]c3c2C(c2cccc(O)c2)N(Cc2ccco2)C3=O)c1 (centres unmarked),6.53
5,C=C1CCN(c2ccc(C(=O)NCc3ccccc3)cc2[N+](=O)[O-])CC1,-10.5
6,Cc1ccc(S(=O)(=O)c2nc(-c3ccccc3Cl)oc2N(C)C)cc1,4.66
7,COCCNC(=O)Nc1ccc2c(c1)N(C)C(=O)CS2,11.5
8,O=C(NCc1ccccc1Cl)c1ccc(CS(=O)(=O)c2ccccc2)o1,-7.35
9,CN1OC2C(=O)N(c3ccccc3)C(=O)C2C1c1ccc(F)cc1 (centres unmarked),5.57
10,CC(NC(=O)CCN1C(=O)c2ccccc2C1=O)c1ccc2c(c1)CCCC2 (centres unmarked),-16
11,Cc1cccc(N2CCN(C(=O)CCNS(=O)(=O)c3ccc4c(c3)oc(=O)n4C)CC2C)c1 (centres unmarked),-19.4
12,CS(=O)(=O)N1CCN(c2ccc(NC(=S)NC(=O)c3ccc4c(c3)OCO4)cc2)CC1,18.2
13,COc1ccccc1N(C)S(=O)(=O)c1ccc(Cl)c(C(=O)Nc2ccncc2)c1,-73.4
14,CCOP(=O)(/C(C#N)=C(\C)O)c1ccccc1 (centres unmarked),2.56
15,COc1cc(OC)c(OC)cc1CN1CCN(C(=O)c2cccc3ccccc23)CC1.O=C(O)C(=O)O,4.94
16,COc1ccc(/C=C/c2nc3sc4c(c3c(=O)o2)CCC4)cc1,4.28
17,COCCN(CC(=O)Nc1cccc(C)c1)S(=O)(=O)c1ccc(S(=O)(=O)N2CCCC2)cc1,-0.348
18,O=C1CC(O)(C(F)F)Oc2ccc3ccccc3c21 (centres unmarked),1.87
19,Cn1cccc1/C=N/NC(=O)C(O)c1ccccc1 (centres unmarked),8.94

row,SMILES,"hERG current change (%, negative = inhibition) at 10uM [%]"
1,CC(c1cccnc1)N(C(=O)Nc1ccccc1)C1CCCCC1 (centres unmarked),-19.6
2,O=C(CCN1C(=O)NC2(CCCC2)C1=O)Nc1cccc(S(=O)(=O)N2CCOCC2)c1,10.7
3,O=C(CSc1ccc(-c2ccncc2)nn1)c1ccccc1,-5.29
4,CC(C)(C)[C@]1(O)C[C@@H]2OC(=O)C[C@@]23C(=O)O[C@@H]2OC(=O)[C@H](O)[C@]213,17.7
5,CCN(c1ccc(NC(=O)COC(=O)c2ccc(C)c(S(=O)(=O)N3CCOCC3)c2)cc1)C(C)C,5.63
6,NCCCC[C@H]1CNC(=S)N1CCCCC1CCCCC1,-10.6
7,COc1ccc(-c2nc(C#N)c(NCCCN(C)C)o2)cc1OC,-8.28
8,Cc1cc(C)cc(N(CC(=O)NCC2CCCO2)C(=O)CCC(=O)Nc2nccs2)c1 (centres unmarked),12.8
9,CN1C(=O)c2ccccc2N(C)C1c1ccccc1Cl (centres unmarked),1.65
10,O=C(O)C[C@H]1c2cc(C(F)(F)F)ccc2S(=O)(=O)N1C1CCN(Cc2ccccc2)CC1,3.74
11,O=[N+]([O-])c1ccccc1N=Nc1ccc(O)cc1,6.61
12,O=C(NCC(c1cccs1)N1CCOCC1)c1cc([N+](=O)[O-])ccc1Cl (centres unmarked),-20.5
13,CCOc1cccc(C(=O)NNC(=O)CCC(=O)O)c1,15.2
14,CCO[C@H]1OC(C(=O)O)=C[C@@H](C)[C@@H]1CCCO,12.6
15,Cc1cccn2cc(CSc3ccccc3N)nc12,-20.5
16,CCCCC(=O)NC(=S)Nc1ccccc1C(=O)Nc1ccccc1,-7.87
17,O=C(Cn1nnc2ccccc21)c1ccc(Br)cc1,-2.12
18,COc1cc(OC)c(OC)cc1CNC(C)C(O)c1ccccc1.Cl (centres unmarked),12.6
